The list shows a part of the results. Repeats are few or missing, and single values can be far off.
Experiments:
Assay in all cases: cell count relative to DMSO control; melanoma cells; higher = more viable cells
Details in all cases: library dose: standard library concentration; 72 h
[1] = system: G361
[2] = system: IPC-298
[3] = system: IST-MEL1
[4] = system: LB2518-MEL
[5] = system: LOXIMVI
[6] = system: MEL-HO
[7] = system: MZ2-MEL
[8] = system: MeWo
[9] = system: RPMI7951
[10] = system: RVH-421
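Note: cells treated in 1,536-well plates, then fixed and DAPI-stained, with nuclei counted from automated high-throughput microscope images.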

SMILES | cell count [1] [%] | cell count [2] [%] | cell count [3] [%] | cell count [4] [%] | cell count [5] [%] | cell count [6] [%] | cell count [7] [%] | cell count [8] [%] | cell count [9] [%] | cell count [10] [%]
CC(C)C[C@H](NC(=O)[C@H](Cc1ccccc1)NC(=O)c1cnccn1)B(O)O [Bortezomib] + CCc1ccc(CCOc2ccc(CC3SC(=O)NC3=O)cc2)nc1 [pioglitazone] (first compound 0.005 µM, partner dose 10 µM) | 0.689 | 9.22 | 9.01 | 1.75 | 10.7 | 31.6 | 3.34 | 9.08 | 5.72 | 51.5
Cc1cc(Nc2cc(N3CCN(C)CC3)nc(/C=C/c3ccccc3)n2)n[nH]1 + COc1ccc(COc2ccc(Cc3cnc(N)nc3N)cc2OC)cc1 [GW2580] (first compound 0.2 µM, partner dose 5 µM) | 76.1 | 88.2 | 90.4 | 82.2 | 86.9 | 75.9 | 97.4 | 69.9 | 84.2 | 74.3
Cn1c(=O)n(-c2ccc(C(C)(C)C#N)cc2)c2c3cc(-c4cnc5ccccc5c4)ccc3ncc21 + Cc1ccc(NC(=O)c2cccc(N(C)C)c2)cc1NC(=O)c1ccc(O)cc1 [ZM336372] (first compound 0.02 µM, partner dose 10 µM) | 63.8 | 95.1 | 77.6 | 80.8 | 99.9 | 79.7 | 95.4 | 61.7 | 78.7 | 85.8
Cc1cn(-c2cc(NC(=O)c3ccc(C)c(Nc4nccc(-c5cccnc5)n4)c3)cc(C(F)(F)F)c2)cn1 [nilotinib] + COc1cc(Nc2ncc(F)c(Nc3ccc4c(n3)NC(=O)C(C)(C)O4)n2)cc(OC)c1OC [Tamatinib] (first compound 1 µM, partner dose 2 µM) | 71.8 | 95.4 | 115 | 97 | 40.7 | 81.5 | 82.4 | 85 | 33.1 | 504
COc1ccc(C2=N[C@@H](c3ccc(Cl)cc3)[C@@H](c3ccc(Cl)cc3)N2C(=O)N2CCNC(=O)C2)c(OC(C)C)c1 [Nutlin-3] + CC(C)(C)c1cnc(CSc2cnc(NC(=O)C3CCNCC3)s2)o1 [SNS-032] (first compound 0.5 µM, partner dose 0.05 µM) | 60.2 | 96.8 | 88.7 | 56.2 | 53.2 | 83.6 | 65.4 | 87.6 | 18.9 | 15.2
Cc1cn(-c2cc(NC(=O)c3ccc(C)c(Nc4nccc(-c5cccnc5)n4)c3)cc(C(F)(F)F)c2)cn1 [nilotinib] + CC(C)(C)c1cnc(CSc2cnc(NC(=O)C3CCNCC3)s2)o1 [SNS-032] (first compound 1 µM, partner dose 0.05 µM) | 105 | 115 | 82.5 | 57.4 | 100 | 87.6 | 102 | 101 | 48.7 | 82.8
Cn1c(=O)n(-c2ccc(C(C)(C)C#N)cc2)c2c3cc(-c4cnc5ccccc5c4)ccc3ncc21 + N#Cc1c(O)c2c(-c3ccc(-c4ccccc4O)cc3)csc2[nH]c1=O [A769662] (first compound 0.02 µM, partner dose 10 µM) | 64.6 | 77.4 | 73.7 | 121 | 87 | 75.2 | 72.2 | 68.8 | 68.2 | 105
CC(C)C[C@H](NC(=O)[C@H](Cc1ccccc1)NC(=O)c1cnccn1)B(O)O [Bortezomib] + COCC[n+]1c2c(n(Cc3cnccn3)c1C)C(=O)c1ccccc1C2=O [YM155] (first compound 0.005 µM, partner dose 0.002 µM) | 1.79 | 13.6 | 9.54 | 5.35 | 26.2 | 29.6 | 4.9 | 10.2 | 6.13 | 19.5
Cn1c(=O)n(-c2ccc(C(C)(C)C#N)cc2)c2c3cc(-c4cnc5ccccc5c4)ccc3ncc21 + COc1cc2c(Oc3ccc4[nH]c(C)cc4c3F)ncnc2cc1OCCCN1CCCC1 [cediranib] (first compound 0.02 µM, partner dose 2 µM) | 62.2 | 92 | 69.6 | 82.8 | 54.8 | 73.9 | 84 | 56.1 | 57.1 | 82.4
Cc1cn(-c2cc(NC(=O)c3ccc(C)c(Nc4nccc(-c5cccnc5)n4)c3)cc(C(F)(F)F)c2)cn1 [nilotinib] + Cc1cc(Nc2cc(N3CCN(C)CC3)nc(/C=C/c3ccccc3)n2)n[nH]1 [ENMD2076] (first compound 1 µM, partner dose 0.2 µM) | 96.2 | 100 | 86.4 | 78.7 | 138 | 98 | 107 | 101 | 68 | 96
Cc1cn(-c2cc(NC(=O)c3ccc(C)c(Nc4nccc(-c5cccnc5)n4)c3)cc(C(F)(F)F)c2)cn1 [nilotinib] + CO[C@H]1C[C@@H]2CC[C@@H](C)[C@@](O)(O2)C(=O)C(=O)N2CCCC[C@H]2C(=O)O[C@H]([C@H](C)C[C@@H]2CC[C@@H](OCCO)[C@H](OC)C2)CC(=O)[C@H](C)/C=C(\C)[C@@H](O)[C@@H](OC)C(=O)[C@H](C)C[C@H](C)/C=C/C=C/C=C/1C [everolimus] (first compound 1 µM, partner dose 0.1 µM) | 62.1 | 65.8 | 85.6 | 67.5 | 96.7 | 62.5 | 49.1 | 58.5 | 63.4 | 77.1
